Here are results for 167 variants from the RNAGym collection of RNA variant scans (doi:10.7554/elife.90254).

B1: OR4K15 (parent)
chain: GUUAACGGUCAUAGGCCAUGGAAACUAGGAGCACCAUUUCGCUGCCAGUGAAGAAAUGAACAAAGAAAAUCUGGGCCAGGCAGGCAUCAAAAGAAAUAGUCUUGCGCUCAACCAGAAAGUCUGUAAUCAUUUUAAGGGUA

Read counts are not given, so values of variants with three or more changes are uncertain.

In this data set the parent is B1. The data set is described as follows: self-cleavage, relative activity (ratio to wild type); higher = more cleavage; in vitro, sequencing; the parent is a self-cleaving ribozyme.
For the variant A55G A114G A117U, the self-cleavage turned out to be 0.22. With A56G U72G A90U A98G the figure was 0.15; with A56G U72C U102A A117G A140G, 0.08. Under A55C A60G A114C stands 0; under A56G A59G A92G, 1.16. On to A56G A62G U87C, for which the self-cleavage worked out at 1.08.

For A56G A69G U70C, the self-cleavage came out at 0.16. Under A54G U100A U139C stands 0.88; under A54G A95G U108C U130C, 0.01; under A55G U87C U127C, 1.14. Take A56G U70C A91U: the self-cleavage was determined as 0.87.

With A56G U108A U130C, the self-cleavage worked out at 0.01. Under A56G A82G U108C stands 0; under A54G G115U U122A, 0.1; under A56G U87C U102C A118C, 1.76. A54G A69U A78U: the self-cleavage turned out to be 0.12. A56G G79A U108C: the self-cleavage is 0.01. For A54G A69G A86G, the self-cleavage came out at 0.68. Under A56G G75U A140G stands 0.14. With A54G A86G C105U A126G A135G the figure was 0.04. Turning to A55G A66G U72A A78G, the self-cleavage came to 0.19.

With A56G A67G U72A A126G U130C A140G, the self-cleavage turned out to be 0.03. As for A54U U72C A118G, the self-cleavage turned out to be 0.16. Take A54U A114U A116G: the self-cleavage was 0. In the case of A54U U70C A96G A98G, the self-cleavage came to 0.12. Regarding A54U A63G A126G U130C, the self-cleavage amounted to 0.38. With A56G U127C A140G the figure was 0.31. As for A56G U127C A140C, the self-cleavage is 1.24. Under A54G A68G U108C stands 0.03; under A54G A111G U131C, 0.02. Take A54G A68G U122C A135G: the self-cleavage is 0.32. With A56G A67G U103C the figure was 0.62; with A55G U87A A96G A129G, 0.8; with A55U A60G A67G, 1.22. With A56G G80A A91U, the self-cleavage was 0.39.

Regarding A56G A114U U130C, the self-cleavage came out at 0.26.

Take A56G U57C A117G: the self-cleavage was found to be 0.86. Take A54G A64G A66G A86U U102A U103C: the self-cleavage was 0.08. A56G A64G A86G A91G: the self-cleavage was 0.08. Under A55U A96G U103C stands 1.37. On to U57A A66U A82G A116G, for which the self-cleavage came out at 0. On to A56G A69G U87C A116G, for which the self-cleavage is 0.22. On to A56G A60G G106A A111G A117G, for which the self-cleavage amounted to 0.01. Under A54U A86G A114G stands 0.48.

Consider A55G A67G U108C U132C, for which the self-cleavage was 0.01.

For the variant A55G A94G A117U, the self-cleavage amounted to 1.01.

For A56G A59G A60G A90G U103C, the self-cleavage was found to be 0.37. As for A55G A92G A116G A118G, the self-cleavage was found to be 0.31. With A55C A117G U120C the figure was 0.89. Under A54U A55G U70C C76U stands 0.08; under A54G A94G A111G U130C, 0. On to A54G A111G A118G, for which the self-cleavage was 0. Under A55C G99U A118G stands 0.53; under A56U A67G A135U, 2.15.

Turning to A56G U124C A140G, the self-cleavage came out at 0.36.

Consider A54G A68G A78U A126G U132C, for which the self-cleavage worked out at 0.25. With A55G A82U A135G the figure was 0.09. Turning to A54G A64U A89G, the self-cleavage was found to be 0.41.

As for A55U A67G A89C, the self-cleavage is 1.65. As to A56G A62G U70C A86U U120C, the self-cleavage came to 0.14.

For the variant A54G U97G U127C, the self-cleavage is 2.1. Under A56G A116U A134G stands 0.15. On to A55G U103C A129C, for which the self-cleavage came out at 0.38. Turning to A55G U102G U108C A129G, the self-cleavage is 0. With A55G A60G U97G the figure was 0.9; with A56G A60G U122C, 1.08. Under A55G A59G A78G stands 0.2; under A54G A118G U130C, 0.82. Take A55G A62G A86G A117G: the self-cleavage is 1.14. With A54G A59G U108C the figure was 0.03. With A56G U57C A60G the figure was 0.46. As for A56G A68G A125U U127C, the self-cleavage turned out to be 0.34. With A56G G73A U122C the figure was 0.1; with A56C U57C A95G, 1.76. With G53A A86G A125G the figure was 0.57. A54G U87C U120C: the self-cleavage came out at 0.41.

For the variant A54G A86U A117G, the self-cleavage worked out at 2.84. Take A54G U100C U130C: the self-cleavage is 2.08. In the case of A54U A91G A111G U127G, the self-cleavage is 0.01. As for A54U A94G A125G U132C, the self-cleavage came out at 0.45. Under A55G A94U U97C U139C stands 1.51. Under A55G A91G A116U stands 0.13. With A54G A110U A111C the figure was 0.16. With A56G A111G A118G, the self-cleavage was determined as 0.02. With A55U A66G A69G the figure was 0.85. Consider A54G A118U U133C, for which the self-cleavage worked out at 0.65. With A56G A114G G138U the figure was 0.22. Turning to A56G A78G U103C, the self-cleavage was determined as 0. With A55G A64G A86C A111U A129G A135G the figure was 0; with A54G U57G A60G A63G A98U A129U, 0.6; with A56C U108A U131C, 0.02. With A54G U70C G83A A111U U133C the figure was 0.2; with A55G A66U A92G, 0.42. Take A54G A68G A96G G115A U132C: the self-cleavage was determined as 0.53. Consider A56G U87A U108C, for which the self-cleavage was determined as 0. With A54G A60G A116G A118G the figure was 0.3; with A55G A78G A91G, 0.05; with A54G U97C U120C, 0.36. Consider A55G A95G A118U A129G, for which the self-cleavage was determined as 0.29. Under A56G A62G A78G A118G stands 0.07. Take A55G C88A U127A: the self-cleavage is 2. Under A54G C88A A94G A118G stands 2.43; under A55G A91G A110G, 0.15; under A55G A60G A66G G119U, 1.24. As for A56C A63G A116G, the self-cleavage came to 0.7. Under A56G C107A G115U stands 0.01. For the variant A55G A69U A91G A111G, the self-cleavage stood at 0.03. With A55G U108C C113U, the self-cleavage is 0.03. A56G A91G A118G: the self-cleavage was 1.17. Turning to A56C A62G A94G, the self-cleavage was 1.29.

As for A56G A95G A111G, the self-cleavage stood at 0.02. Under A55G A56G A140G stands 0.91; under A55G U122G A129G G138A, 1.67. With A54G A64G U87C A117U A126G U139A the figure was 0.36. Under A55G G79U U108C stands 0. For A55G A60G A118G, the self-cleavage was found to be 0.58.

Turning to A56G A64G U87C, the self-cleavage was determined as 0.53. Under A55G U120C A129U stands 1.13; under A54G G80A A111U U131C, 0.02; under A54G A98G G99A, 1.53. Under A54G U87C A92U stands 1.85. Consider A54U C71U A116G, for which the self-cleavage amounted to 0.33. A55G U72C A114U: the self-cleavage came to 0.1. For A54G A59G A82G U108C, the self-cleavage is 0.1. On to A56G U72C A82G A94G A114G A116G, for which the self-cleavage is 0.25. With A56G U72G U87C U103C A129G the figure was 0.04. Consider A56G A82G U87C U131A, for which the self-cleavage worked out at 0.54. Under A56G A59G A96G A114U stands 0.06; under A56G A94G U102C, 1.29. With A55G A78G A135G the figure was 0.25; with A55G A68G U130C A135G, 1.45.

On to A55G A64G G119A, for which the self-cleavage came out at 1.41.

Regarding A55G A91G A117G, the self-cleavage was 1.02. Under A54G A66G C71U C107U stands 0.02; under A54G A116G A129C A140U, 0.29; under A54G A55G A110G G136A, 0.15. A55G U139C A140G: the self-cleavage came out at 0.94. Consider A54G A55G U57C A63G U72A A92G A95G U103C A118G, for which the self-cleavage was 0.02. With A56G U102C A125G the figure was 1.26; with A54G A68G U132C, 0.35; with A56G A60G A140U, 1.23. For A56G A62C A94G G123A, the self-cleavage is 1.3. On to A56G A59G U122C U132A, for which the self-cleavage was 1.67.

As to A54G A117G U130C, the self-cleavage came to 0.94. In the case of A54G A91G A111U G123A A126G, the self-cleavage was determined as 0.02.

As to A54G A59U A67G A91G, the self-cleavage came out at 0.87. With A55G A89G U103C U139C the figure was 0.57; with A55G U70C U87C A129G, 0.32.

For the variant A55G U100C U133C, the self-cleavage was found to be 2.7. Consider U57A A60G U120G, for which the self-cleavage was 0.52. Under A54G G58A A59G stands 1.31; under A54G A110G G115A G119A U127C, 0.02; under A54G A62G A96G, 0.9.

Consider G53A A55G U122C A129G, for which the self-cleavage turned out to be 0.72.

For the variant A54G A129C U130C, the self-cleavage came out at 0.63.

A56G A64G A94G A96G: the self-cleavage is 0.51.

Turning to A54G A56G A90G U97G G138A, the self-cleavage came out at 0.87. Under A54G A66U A94U U108C A117G G123A stands 0. Under A55G A95G U97A U102C U127C U131C stands 1.87; under A54G C101A G106A U133A, 0.01. For A55G A78U U122C, the self-cleavage turned out to be 0.26. Under A54U A60G A69G A78U stands 0.27; under G53A U72C A95G U103C, 0.1; under A56G A67G U72C U122C, 0.11. With A55G U57C U108C the figure was 0.02; with U57A A59U C107A, 0.01. With A56U A60G A62U A89G A110G, the self-cleavage was 0.06.
